# Of roughly 21,000 targets only a part is listed; those with the largest changes were picked by preference.
# Compound: CC1Cc2ccccc2N1C(=O)C1CCCN(C1)C(=O)CCl (mixture of isomers) [TRIM25 ligand 11 (diastereomer mixture)]
# Test: probe-labelled cysteine peptide fold change vs DMSO (competition) (log2 fold change); higher = less target engagement (more negative = stronger competition)
# Conditions: THP-1, incubation time: 4 h
# 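Note: competitive chemoproteomic profiling in live THP-1 cells with an iodoacetamide desthiobiotin (IA-DTB) probe, comparing probe-labelled peptide intensities in compound-treated cells against DMSO-treated controls.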
# Sequence of UniProt P51991 (P51991 whole entry, looked up): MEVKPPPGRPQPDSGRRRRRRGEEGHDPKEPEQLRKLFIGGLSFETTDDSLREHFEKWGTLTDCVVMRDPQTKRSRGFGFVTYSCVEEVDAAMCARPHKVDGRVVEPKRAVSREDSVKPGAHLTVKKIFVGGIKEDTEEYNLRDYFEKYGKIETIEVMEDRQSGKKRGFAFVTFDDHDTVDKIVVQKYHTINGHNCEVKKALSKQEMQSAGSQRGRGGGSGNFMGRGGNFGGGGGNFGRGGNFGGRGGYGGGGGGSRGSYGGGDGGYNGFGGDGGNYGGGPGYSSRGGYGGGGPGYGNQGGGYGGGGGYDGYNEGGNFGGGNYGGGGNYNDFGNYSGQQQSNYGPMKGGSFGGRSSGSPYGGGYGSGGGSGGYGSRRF
target,measurement,setting,value
HNRNPA3_P51991_85+94_GFGFVTYSCVEEVDAAMCAR (UniProt P51991),probe-labelled cysteine peptide fold change,10 µM,0.0715
same,probe-labelled cysteine peptide fold change,50 µM,-0.152

# From the supplement of paper PMC12067093, “Discovery and optimisation of a covalent ligand for TRIM25 and its application to targeted protein ubiquitination” (Chemical Science, 2025)
